# Results published in PubChem BioAssay AID1159614 (National Center for Advancing Translational Sciences (NCATS), 2016).
# Among all 45,000 compounds or so, about 65 (0.1%) were called active. Calls follow the shape of the dose curve; as a rule, active = well fitted activation curve with a large enough effect; inconclusive = small, poorly fitted or top-dose-only effect; inactive = no such curve, though single readings can be large or run the other way. Some of the results follow.
# Biological target: Galactocerebrosidase (Homo sapiens) (UniProt P54803)
# Chain of UniProt P54803 (P54803 whole entry, looked up): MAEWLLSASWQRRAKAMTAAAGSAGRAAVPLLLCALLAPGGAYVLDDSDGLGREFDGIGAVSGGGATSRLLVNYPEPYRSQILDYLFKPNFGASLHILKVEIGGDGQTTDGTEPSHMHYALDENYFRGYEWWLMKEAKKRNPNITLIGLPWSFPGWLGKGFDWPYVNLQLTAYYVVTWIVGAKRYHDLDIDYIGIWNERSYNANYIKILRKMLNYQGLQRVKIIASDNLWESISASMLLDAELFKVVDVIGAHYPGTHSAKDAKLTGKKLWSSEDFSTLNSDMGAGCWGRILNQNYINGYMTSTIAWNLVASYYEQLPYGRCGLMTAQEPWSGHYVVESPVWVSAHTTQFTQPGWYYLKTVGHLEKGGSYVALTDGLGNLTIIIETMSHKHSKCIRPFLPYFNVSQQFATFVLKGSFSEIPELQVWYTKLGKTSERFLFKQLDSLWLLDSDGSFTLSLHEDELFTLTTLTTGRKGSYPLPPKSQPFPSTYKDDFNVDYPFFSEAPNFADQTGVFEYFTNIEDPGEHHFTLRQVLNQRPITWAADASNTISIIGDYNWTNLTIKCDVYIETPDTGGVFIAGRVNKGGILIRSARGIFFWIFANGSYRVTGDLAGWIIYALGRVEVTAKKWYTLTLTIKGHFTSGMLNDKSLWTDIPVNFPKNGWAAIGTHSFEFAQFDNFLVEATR
# Assay: A Novel Cell-Based Assay to Identify Small Molecules for B -Galactocerebrosidase; also: 0% is about no effect; nearly all actives have a fitted effect of over 65% in size
# Conditions: 145M-Twi-hGALC-G270D cells (Twitcher mouse brain line with human GALC G270D), HMU-beta-Gal fluorescence, 48 h; series mostly up to 57.5 µM; activation: at the top concentration
# In short: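 Mutant human GALC (G270D), stably expressed in a Twitcher mouse brain cell line lacking endogenous GALC, is measured in live-treated cells via 6-hexadecanoylamino-4-methylumbelliferyl-β-galactoside hydrolysis (0.1 mM final, pH 5.2) with fluorescent detection.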
row,SMILES,activation
1,Cc1ccc(NC(=O)Cn2cnc3onc(-c4ccc(F)cc4)c3c2=O)c(Cl)c1,inactive: -27.2%
2,COc1ccccc1-c1cc2nc(C)c(CCC(=O)NCCc3cccc(C)c3)c(C)n2n1,inactive: -40%
3,CC1=C(C(=O)Nc2cc(Cl)ccc2C)C(c2sccc2C)n2ncnc2N1 (stereo unspecified),inactive: -17.7%
4,Cc1ccc(Cl)cc1N1CCN(C(=O)CSc2cc(=O)n(C)c3ccccc23)CC1,inactive: -48.7%
5,Cc1cccc(CC(=O)Nc2ccc3nc(N4CCC(C)CC4)cc(C)c3c2)c1,inactive: -17.2%
6,CSc1ncc(C(=O)NCc2ccc(C)cc2)c(C)n1,inactive: -6.11%
7,COc1ccc(C(=O)Nc2ccc3nc(SCC(=O)N(C)c4ccccc4)sc3c2)cc1,inactive: -27.7%
8,O=C(CSc1cn(CCNC(=O)c2cccc(C(F)(F)F)c2)c2ccccc12)Nc1ccc2c(c1)OCCO2,inactive: -6.52%
9,CC(C)(C)c1ccc2c(c1)N(CC(=O)NCCCN1CCN(c3ccccc3F)CC1)C(=O)CO2,inactive: -6.41%
10,Cc1cc(C)c(NC(=O)Cn2c(=O)n(CCC(=O)NCc3ccccc3Cl)c(=O)c3sccc32)c(C)c1,inactive: -9.72%
11,O=C(Nc1nc2ccc(F)cc2s1)c1nc(S(=O)(=O)Cc2ccccc2F)ncc1Cl,inactive: -14.5%
12,CC1CCN(S(=O)(=O)c2ccc3c(c2)N(CC(=O)NCCCN2CCCCC2)C(=O)CS3)CC1,inactive: -13.2%
13,Cc1ccc(CNC(=O)c2cc(-c3ccc(C)cc3)nc3n[nH]c(-c4cccc([N+](=O)[O-])c4)c23)cc1,inactive: -4.76%
14,O=C(c1ccc(F)cc1)N1CCC(c2nc3ccccc3s2)CC1,inactive: -2.95%
15,CN(C)C(=S)SC(=S)N(C)C,inactive: -15.6%
16,CC(C)N(C(=O)Cn1cc(S(=O)(=O)Cc2ccc(Br)cc2)c2ccccc21)C(C)C,inactive: -13%
17,Cc1c(C(=O)Nc2ccc(F)c(C(F)(F)F)c2)sc2nc(-c3ccccc3)cn12,inactive: -7.33%
18,CCOc1ccc(S(=O)(=O)NCCc2c(C)[nH]c3c(Cl)cccc23)cc1C,inactive: -11.2%
19,CSc1nc2c(sc3ccccc32)c(=O)n1Cc1ccc(C)cc1,inactive: -9.79%
20,CCn1c(=O)c(=O)n(CC)c2cc(N3CCCCC3)c(NC(=O)c3ccccc3OC)cc21,inactive: -23.3%
21,COc1ccccc1-c1c(C)nn2c(N3CCN(c4ccccc4)CC3)cc(C)nc12,inactive: -7.87%
22,CCOc1ccc(-c2nc(CSCC(=O)NCCc3ccc(OCC)c(OCC)c3)c(C)o2)cc1,inactive: -10.4%
23,CCCN1CCN(CC2=C(C(=O)OCC)C(c3ccc(OC(C)C)cc3)NC(=O)N2)CC1 (stereo unspecified),inactive: -7.85%
24,CCC(C)NC(=O)CSc1c2c(nc3cc(Cl)ccc13)CCCC2 (stereo unspecified),inactive: -8.9%
25,COc1ccc(C(=O)Nc2cc(-c3nc4ccccc4s3)ccc2OC)cc1,inactive: -11.1%
26,O=C(Nc1ccc2nc(SCC(=O)N3CCOCC3)sc2c1)c1ccc(Br)cc1,inactive: -11.6%
